Source: patent US9907800B2, “Kinase inhibitors and method of treating cancer” (University Health Network, priority 2010, dated 2018)
Where a name gives a salt, the structure may show the parent alone.

Assays:
[1] = tested on: BT474 breast cancer cell line; assay type: cell-based; settings: Homo sapiens, BT-474, 120 h, read-out: GI50 Range
[2] = tested on: T47 D breast cancer cell line; assay type: cell-based; settings: Homo sapiens, T47D, 120 h, read-out: GI50 Range
[3] = tested on: HCT116+/− colon cancer cell line; assay type: cell-based; settings: Homo sapiens, HCT-116, 120 h, read-out: GI50 Range
[4] = tested on: HCT116+/+ colon cancer cell line; assay type: cell-based; settings: Homo sapiens, HCT-116, 120 h, read-out: GI50 Range
[5] = tested on: SKBR3 breast cancer cell line; assay type: cell-based; settings: Homo sapiens, SK-BR-3, 120 h, read-out: GI50 Range
[6] = tested on: PC-3 prostate cancer cell line; assay type: cell-based; settings: 120 h, read-out: GI50 Range
[7] = tested on: HCT-15 colon cancer cell line; assay type: cell-based; settings: Homo sapiens, HCT-15, 120 h, read-out: GI50 Range
[8] = tested on: HS578T breast cancer cell line; assay type: cell-based; settings: Homo sapiens, Hs-578T, 120 h, read-out: GI50 Range
[9] = tested on: SW 626 ovarian cancer cell line; assay type: cell-based; settings: Homo sapiens, SW626, 120 h, read-out: GI50 Range
[10] = tested on: SK-OV-3 ovarian cancer cell line; assay type: cell-based; settings: Homo sapiens, SK-OV-3, 120 h, read-out: GI50 Range
[11] = tested on: 184A1 immortalized breast cell line; assay type: cell-based; settings: 184A1, 120 h, read-out: GI50 Range
[12] = tested on: HCC1954 basal breast cancer cell line; settings: 5 days, SRB, 2,2,2-trifluoroacetate salt, read-out: Cell Line GI50 Range HCC-1954
[13] = tested on: MCF-7 luminal breast cancer cell line; settings: 5 days, SRB, 2,2,2-trifluoroacetate salt, read-out: Cell Line GI50 Range MCF-7

Measured: GI50

COc1ccc2c(c1)[C@]1(CC1c1ccc3c(-c4ccc(N5CCN(C)CC5)nc4)n[nH]c3c1)C(=O)N2 (single isomer, unassigned) [Example A13, (1R*, 2S*)-5′-Methoxy-2-(3-(6-(4-methylpiperazin 1-yl)pyridin-3-yl)-1H-indazol-6-yl)spiro[cyclopropane-1,3′-indolin]-2′-one]
not listed: [11] | [12] | [13]
1 to 50 µM: all other assays above

CN(C)Cc1ccc(/C=C/c2n[nH]c3cc(C4C[C@@]45C(=O)Nc4ccccc45)ccc23)cc1 (single isomer, unassigned) [Example A23, (1R*,2S*)-(E)-2-(3-(4-((dimethylamino)methyl)styryl)-1H-indazol-6-yl)spiro[cyclopropane-1,3′-indolin]-2′-one 2,2,2-trifluoroacetate]
not listed: [2] | [8] | [9] | [12] | [13]
1 to 50 µM: all other assays above

CN1CCc2ccc(/C=C/c3n[nH]c4cc([C@@H]5C[C@@]56C(=O)Nc5ccccc56)ccc34)cc2C1 [Example A65, (1R,2S)-2-(3-((E)-2-(2-methyl-1,2,3,4-tetrahydroisoquinolin-7-yl)vinyl)-1H-indazol-6-yl)spiro[cyclopropane-1,3′-indolin]-2′-one 2,2,2-trifluoroacetate salt]
0.1 to 1 µM: [12]
< 0.1 µM: [13]
